From publication PMC5836133
This is one part of the list. At the low end of the ranking, values are background and their order means little.
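Note: rank-based score ranging −0.5 to +0.5 with E above 0.45 taken as significant binding.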

Each sequence was assayed on T1, GST-NbGlk1(82-244) (assay: protein-binding microarray). Conditions: NbGlk1 is a Golden2-like transcription factor of Nicotiana benthamiana; high values mean tight binding; most listed sequences are background and not binding sites; double strand, one strand shown.
T1 sequence: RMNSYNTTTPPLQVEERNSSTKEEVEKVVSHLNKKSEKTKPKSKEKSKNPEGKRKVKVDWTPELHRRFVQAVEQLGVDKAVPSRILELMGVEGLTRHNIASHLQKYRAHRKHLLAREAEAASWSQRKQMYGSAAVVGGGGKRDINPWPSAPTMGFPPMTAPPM
AAGGGCGG gave a binding signal of -0.0927 E-score. In the case of AAGCTATT, the binding signal is reported as 0.0015 E-score. In the case of AGACAACC, the binding signal is reported as -0.222 E-score. For AGATGGAT, the binding signal was 0.132 E-score. ATCAAAGC showed a binding signal of 0.153 E-score. Sequence AAGGCCAA has a binding signal of -0.139 E-score. AACCACTA was tested, and the binding signal was -0.106 E-score. AGAGTCAA gave a binding signal of -0.147 E-score. Work on AAGGGTCA yielded a binding signal of -0.151 E-score. AAGCCCTC was tested, and the binding signal was -0.236 E-score. ATTGCGTG showed a binding signal of 0.388 E-score. AAGCGACA gave a binding signal of -0.0121 E-score. With ACGGCAGC the binding signal was -0.237 E-score. AGGTCCTC gave a binding signal of -0.236 E-score. ATACTTCA gave a binding signal of 0.0306 E-score. For AGGGCACC, the binding signal was -0.343 E-score. Work on AAAACTAT yielded a binding signal of 0.123 E-score. AGTGTTTC was tested, and the binding signal was 0.0393 E-score. ATAAGTTA was tested, and the binding signal was 0.0783 E-score. AAAGGCAC was tested, and the binding signal was -0.303 E-score. ACTGACTG showed a binding signal of -0.167 E-score. With AACATGCC the binding signal was -0.0403 E-score. ATCAACAT gave a binding signal of 0.0728 E-score. ACCGAACA was tested, and the binding signal was -0.18 E-score. AATAAAGC showed a binding signal of 0.0797 E-score. Sequence ACGGACAA has a binding signal of 0.045 E-score. In the case of CAGAACGC, the binding signal is reported as -0.134 E-score. Work on AAGTACCG yielded a binding signal of -0.167 E-score. For ACCTACCA, the binding signal was -0.0829 E-score. In the case of ACAGGCCC, the binding signal is reported as -0.135 E-score. Sequence CAGCAGAC has a binding signal of -0.223 E-score. For ACTCCACG, the binding signal was -0.136 E-score. Work on AAATGTGT yielded a binding signal of -0.0339 E-score. For ACGCCACG, the binding signal was -0.132 E-score. AGGAACAT was tested, and the binding signal was -0.0117 E-score. ACGTTCTG was tested, and the binding signal was -0.0995 E-score. Work on AGTCGACG yielded a binding signal of -0.152 E-score. For AGACCCTG, the binding signal was -0.207 E-score. In the case of ACTCGGGA, the binding signal is reported as -0.0561 E-score. For AAGCGGTC, the binding signal was -0.171 E-score. Sequence ACGGGCTA has a binding signal of -0.0241 E-score. For ATGATGGC, the binding signal was -0.103 E-score. AAGTAAAT gave a binding signal of 0.144 E-score. ATAGCATG was tested, and the binding signal was -0.085 E-score. Sequence AGCGCCCG has a binding signal of -0.335 E-score. CAAGCTAG showed a binding signal of -0.134 E-score. ACTACGTG was tested, and the binding signal was -0.0954 E-score. ACATTTCT showed a binding signal of -0.0127 E-score. With AGCTACCC the binding signal was -0.134 E-score. AAAACCCA showed a binding signal of -0.0596 E-score. CAACTAAC showed a binding signal of 0.0598 E-score. For ATAGGTCG, the binding signal was -0.218 E-score. Work on CACTTGGC yielded a binding signal of -0.116 E-score. Sequence AATTCAAA has a binding signal of 0.106 E-score. Sequence ACTCACGA has a binding signal of -0.0783 E-score. For AAGCACTT, the binding signal was -0.102 E-score. With AATACCAA the binding signal was 0.00993 E-score. Work on ATCGTATG yielded a binding signal of 0.131 E-score. CAGCAACA gave a binding signal of -0.116 E-score. With ACTGAAGG the binding signal was -0.118 E-score. AACGACCC showed a binding signal of -0.159 E-score. For AGCGGACA, the binding signal was -0.229 E-score. ACCACTCG was tested, and the binding signal was 0.0355 E-score. Work on AGGCTGTA yielded a binding signal of -0.141 E-score. Work on CACATATG yielded a binding signal of 0.0704 E-score. For ACCGTTGA, the binding signal was -0.0958 E-score. ACATGGTG was tested, and the binding signal was -0.118 E-score. AAGAGATC showed a binding signal of 0.377 E-score. With CACGCTGG the binding signal was -0.133 E-score. ACCGGGGA showed a binding signal of -0.0349 E-score. For AGACTGAC, the binding signal was -0.239 E-score. Sequence AGACTGGC has a binding signal of -0.066 E-score. With CAGAGTGC the binding signal was -0.114 E-score. For AGTGTGCG, the binding signal was -0.112 E-score. Work on ATGGGGCA yielded a binding signal of -0.055 E-score. With AACCACTG the binding signal was -0.0683 E-score. Sequence ACCTATTA has a binding signal of 0.00658 E-score. In the case of ATTGCTGA, the binding signal is reported as 0.15 E-score. With AGGGTCAT the binding signal was -0.253 E-score. AATAGACT showed a binding signal of -0.0644 E-score. In the case of ATCGATAC, the binding signal is reported as 0.245 E-score. In the case of ACTTGCAA, the binding signal is reported as -0.0565 E-score. In the case of ACTTTACG, the binding signal is reported as 0.154 E-score. AGTTTTCA showed a binding signal of -0.00138 E-score. For AGCAATCA, the binding signal was 0.321 E-score. ATCCCTTC gave a binding signal of 0.0627 E-score. With AATTCGCG the binding signal was 0.178 E-score. ACGGCAAA showed a binding signal of 0.0563 E-score. ATGGTGTC was tested, and the binding signal was -0.082 E-score. AAGTATTA gave a binding signal of 0.0699 E-score. Work on ACGAGACT yielded a binding signal of -0.0699 E-score. AGCTTACT was tested, and the binding signal was -0.14 E-score. For AAGCCGCC, the binding signal was -0.361 E-score. Sequence AGCCAGCA has a binding signal of -0.209 E-score. Sequence ATGTATTA has a binding signal of 0.091 E-score. ATCAAAAG showed a binding signal of 0.0958 E-score. ACTTCACG was tested, and the binding signal was -0.25 E-score. With AATTCCAC the binding signal was 0.0356 E-score. Work on AGTATCAC yielded a binding signal of 0.103 E-score. With ACAAGTGC the binding signal was -0.0689 E-score. With ATCTCTAG the binding signal was 0.294 E-score. Sequence AACGGTAC has a binding signal of 0.0846 E-score. With AATGGAAC the binding signal was -0.14 E-score. Work on AATGTTAA yielded a binding signal of 0.188 E-score. AGGTTACG gave a binding signal of -0.0865 E-score. With ACCAAGTA the binding signal was -0.122 E-score. ATGAAAGA gave a binding signal of 0.122 E-score. With AGAGAACC the binding signal was -0.0437 E-score. AGTTGATG was tested, and the binding signal was -0.153 E-score. ACCAGTGA gave a binding signal of -0.216 E-score. For ACGCCTGC, the binding signal was -0.274 E-score. With AGAGGCCG the binding signal was -0.104 E-score. Work on ACACCAGG yielded a binding signal of -0.199 E-score. AAATATCC gave a binding signal of 0.42 E-score. Work on CACGTTAG yielded a binding signal of -0.0703 E-score. With ATTCGAAA the binding signal was 0.208 E-score. Work on ATCGCTAC yielded a binding signal of 0.141 E-score. With AGTTTAGG the binding signal was -0.0187 E-score. Work on CACACGAA yielded a binding signal of -0.053 E-score. AGGGATCG showed a binding signal of 0.0562 E-score. For AGAAGAGG, the binding signal was -0.191 E-score. AGTGCGTA gave a binding signal of 0.013 E-score. With CACCATAA the binding signal was 0.0187 E-score. In the case of CAAAGAGA, the binding signal is reported as -0.0263 E-score. In the case of AGCCGTCC, the binding signal is reported as -0.132 E-score. Work on ACCGTACA yielded a binding signal of -0.0535 E-score. CACCTAAA showed a binding signal of -0.0298 E-score. Sequence AACGGAGA has a binding signal of 0.0976 E-score. With AATACCCC the binding signal was -0.128 E-score. Sequence CAGACCTG has a binding signal of -0.0928 E-score. With AATCGGTA the binding signal was 0.257 E-score. With AATCGACG the binding signal was 0.243 E-score. For AATTTCTC, the binding signal was 0.167 E-score. CACCTTTA was tested, and the binding signal was 0.0328 E-score. Work on ACAGCACG yielded a binding signal of -0.144 E-score. Sequence ACCCGCCC has a binding signal of 0.000507 E-score. In the case of ACCTTCCA, the binding signal is reported as -0.113 E-score. For CAATGGAA, the binding signal was -0.0897 E-score. Sequence AAGAGGCC has a binding signal of -0.229 E-score. ACAATGCA showed a binding signal of 0.0174 E-score. In the case of AACTCCGA, the binding signal is reported as -0.14 E-score. ACCGTCGA was tested, and the binding signal was -0.188 E-score. For ACATAGAA, the binding signal was 0.0384 E-score. Work on AACCAATT yielded a binding signal of 0.0107 E-score. AATTTGAA was tested, and the binding signal was 0.171 E-score. AAGTGATA was tested, and the binding signal was 0.172 E-score. Sequence ATTTCTCA has a binding signal of 0.248 E-score. With AAACCACC the binding signal was -0.223 E-score. For ACGACTCT, the binding signal was -0.043 E-score. With AGCTAATA the binding signal was 0.107 E-score. AACAACGG gave a binding signal of -0.0804 E-score. AGGTTAGA was tested, and the binding signal was 0.0714 E-score. Sequence AAGCAACG has a binding signal of -0.168 E-score. Sequence ACTCTCTC has a binding signal of -0.173 E-score. With ATTGATCG the binding signal was 0.036 E-score. Sequence CACACAAA has a binding signal of 0.111 E-score. With AATCGGCA the binding signal was 0.245 E-score. For AGCCTTGG, the binding signal was -0.318 E-score. ACCGAGTA showed a binding signal of 0.0565 E-score. ACGGTGAA gave a binding signal of -0.00403 E-score. With CACACAGA the binding signal was 0.201 E-score. AAGCTTCT was tested, and the binding signal was -0.0531 E-score. In the case of AGAGGACA, the binding signal is reported as -0.0966 E-score. CACATGAC showed a binding signal of 0.0194 E-score. Work on ACGAAAAG yielded a binding signal of -0.0403 E-score. For ATTCCAAC, the binding signal was 0.214 E-score. AAGGGTCG was tested, and the binding signal was -0.197 E-score. Work on AAGTTGCA yielded a binding signal of -0.0633 E-score. Sequence ACAGGGAG has a binding signal of -0.221 E-score. With AAAGAACT the binding signal was 0.0138 E-score. ATACTCCA was tested, and the binding signal was 0.208 E-score. For AGTTATTA, the binding signal was 0.0621 E-score.
